PubChem BioAssay AID1347043 (National Center for Advancing Translational Sciences (NCATS), 2019)
The whole screen tested about 76,000 compounds, of which about 1,900 (2.5%) were called active. Inconclusive means that the source gave no clear call. Such entries were picked first, then a sample of the others. The call rests on the fitted dose curve; in most records, active means well fitted inhibition curve with a large enough effect; inconclusive means small, poorly fitted or top-dose-only effect; inactive means flat fitted curve, though single readings scatter. Potencies of inconclusive entries are doubtful fits and often do not repeat.
Further: nearly all actives have a fitted effect of over 65% in size.
On the % scale 0 is the no-effect control and ±100 the full control effect; potency means the concentration at half of the fitted maximal effect; tags describe the fitted curve by direction and shape.

What follows are compounds tested against Luciferin 4-monooxygenase (Photinus pyralis) (UniProt P08659) (assay: Firefly luciferase inhibition profiling of diverse chemical library using quantitative high-throughput screening). Settings: purified P. pyralis luciferase, luminescence, biochemical; activity change, negative = inhibition: at 115 µM (top of the series) unless noted.
UniProt P08659, sequence (P08659 whole entry, looked up): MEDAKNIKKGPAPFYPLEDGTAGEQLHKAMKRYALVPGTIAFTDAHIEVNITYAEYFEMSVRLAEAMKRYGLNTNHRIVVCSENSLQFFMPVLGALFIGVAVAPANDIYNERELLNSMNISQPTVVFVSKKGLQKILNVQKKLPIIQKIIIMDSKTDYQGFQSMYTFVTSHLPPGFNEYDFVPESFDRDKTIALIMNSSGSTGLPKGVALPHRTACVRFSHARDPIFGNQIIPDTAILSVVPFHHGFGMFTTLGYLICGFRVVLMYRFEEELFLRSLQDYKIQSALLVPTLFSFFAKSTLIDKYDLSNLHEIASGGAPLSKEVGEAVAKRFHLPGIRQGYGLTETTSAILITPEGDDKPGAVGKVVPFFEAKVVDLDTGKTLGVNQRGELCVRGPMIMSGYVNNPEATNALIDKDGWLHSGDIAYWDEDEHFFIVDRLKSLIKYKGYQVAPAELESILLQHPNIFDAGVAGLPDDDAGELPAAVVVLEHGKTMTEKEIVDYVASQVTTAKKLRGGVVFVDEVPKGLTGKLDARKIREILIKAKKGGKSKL
In short: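 Cell-free enzyme assay, 10nM P. pyralis luciferase, luciferin and ATP each at 10uM. Inhibition profiled over a 6-point titration, read as luminescence.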
For Cc1cc(NC(=O)c2ccc(Cn3ccn4nc5c(c4c3=O)CCCC5)cc2)ccc1F, the Potency was inconclusive: 44.7 µM [inhibitor, partial curve].
In the case of COc1cccc(NC(=O)c2ccc3c(c2)C(O)CCCCCN3C)c1 (configuration not stated), the Potency is reported as active: 35.5 µM.
Cc1ccc(-c2nc(C(=O)NCc3ccccc3C)no2)cc1 was tested, and the Potency was inconclusive: 35.5 µM [inhibitor, partial curve].
CN(Cc1ccc(-c2ccccc2)cc1)Cc1ccccc1Cl was tested, and the Potency was inconclusive: 100 µM [inhibitor, partial curve].
Cc1oc2c(c1C(=O)NCc1ccc3c(c1)OCO3)CN(Cc1ccc(F)cc1)CC2 was tested, and the “activity change, negative = inhibition” value was inactive: 4.5%.
For O=C(c1ccoc1)N1CCCn2cc(-c3ccccc3F)nc21, the Potency was inconclusive: 39.8 µM [inhibitor, partial curve].
With CC(C)[C@H](NC(=O)Cn1nc2c(cc1=O)CCCCC2)C(=O)O the Potency was active: 22.4 µM.
In the case of CCc1noc([C@@H]2CC(F)(F)CN2C(=O)c2ccoc2C)n1, the Potency is reported as active: 35.5 µM.
For CCCCc1cn(CC2CCN(C(=O)c3ccsc3)CC2)nn1, the Potency was inconclusive: 50.1 µM [inhibitor, partial curve].
In the case of CCCNc1cc(N2CCC(CCC(=O)N3CCN(c4cccc(C)c4)CC3)CC2)ncn1, the Potency is reported as inconclusive: 44.7 µM [inhibitor, partial curve].
For Cc1cc(C)n(CCC(=O)N2CC(Oc3ccc(-c4nc(-c5ccccc5)no4)cc3)C2)n1, the Potency was inconclusive: 39.8 µM [inhibitor, partial curve].
In the case of COCCN1CCNc2cc(Nc3cccc(OC)c3)ncc2C1, the Potency is reported as active: 7.08 µM.
In the case of O=C(Nc1cnc(-c2ccc(Cl)cc2)nc1)C1CCC1, the Potency is reported as active: 0.282 µM.
With COc1ccc(C(C(=O)O)N2CCN(c3ccc(F)cc3)CC2)c(OC)n1 (configuration not stated) the “activity change, negative = inhibition” value was inactive: 11.3%.
For Cc1cc(F)ccc1NC(=O)c1cc(-c2ccc[nH]2)n[nH]1, the Potency was active: 39.8 µM.
Cc1noc(-c2ccc(OC3CN(C(=O)NCc4ccc(F)cc4)C3)cc2)n1 was tested, and the “activity change, negative = inhibition” value was inactive: -11.9%.
In the case of CN(Cc1nc(-c2ccncc2)no1)C(=O)C1CNCCO1 (configuration not stated), the “activity change, negative = inhibition” value is reported as inactive: -6.04%.
In the case of Cn1cc(CN2CCN(c3cnccn3)CC2)c(-c2ccc(C3CCCCC3)cc2)n1, the Potency is reported as active: 22.4 µM.
With Cc1cc(C(=O)N[C@@H]2C[C@H](Cn3cc(CN(C)C)nn3)[C@@H](O)[C@H]2O)no1 the Potency was inconclusive: 79.4 µM [inhibitor, partial curve].
CCc1nc(N2CCc3ccccc3C2)ncc1C(=O)O was tested, and the Potency was active: 22.4 µM.
In the case of Cc1ccc(-c2ccc3nnc(CNC(=O)c4cccc(N(C)C)c4)n3n2)cc1C, the Potency is reported as inconclusive: 50.1 µM [inhibitor, partial curve].
With COc1cccc(S(=O)(=O)N2CCCCCNC(=O)CC2c2ccccc2)c1 (configuration not stated) the “activity change, negative = inhibition” value was inactive: -1.63%.
In the case of O=C(NCc1ccccc1F)C1CCN(C(=O)c2ncn3c2COC(c2ccccc2)C3)CC1 (configuration not stated), the Potency is reported as active: 10 µM.
In the case of COc1cccc(-c2cc(C(=O)NCCn3nc(C)c(Cl)c3C)[nH]n2)c1, the Potency is reported as inconclusive: 79.4 µM [inhibitor, single point].
In the case of COc1ccc(C2Cn3nnc(C(=O)N4CCC(C(=O)NCc5cccc(C)c5)CC4)c3CO2)cc1 (configuration not stated), the Potency is reported as inconclusive: 50.1 µM [inhibitor, partial curve].
For CO[C@H]1C(=O)N(C(C)C)[C@H]1C1CCN(C(=O)Cn2nc(C(F)(F)F)cc2C)CC1, the Potency was active: 35.5 µM.
With CN(C)C(=O)c1ccc(-c2ncc3c(n2)OCCN(Cc2ccc(F)cc2F)C3=O)cc1 the Potency was active: 44.7 µM.
CNC(=O)CN(C)C(=O)c1coc(COc2ccc3ccc(OC)cc3c2)n1 was tested, and the Potency was inconclusive: 79.4 µM [inhibitor, single point].
In the case of COc1ccc(NC(=O)O[C@@H]2CO[C@H]3[C@@H]2OC[C@@H]3NCc2ccc(-c3ccccc3)cc2)cc1, the Potency is reported as inconclusive: 44.7 µM [inhibitor, partial curve].
For O=C(c1ccccn1)N1CCC(Oc2ccc(-c3noc(-c4ccccc4)n3)cc2)C1 (configuration not stated), the Potency was active: 11.2 µM.
With O=C([C@H]1C[C@H](Oc2cccnc2)CN1C(=O)CCc1c[nH]c2ccccc12)N1CCOCC1 the “activity change, negative = inhibition” value was inactive: 0%.
With CCCN(C)c1nccnc1OC1CCN(C(=O)c2ccc(OC)nc2OC)C1 (configuration not stated) the Potency was active: 22.4 µM.
For COc1cccc(N2CCN(c3nc(C(=O)NCc4ccco4)cs3)CC2)c1, the “activity change, negative = inhibition” value was inactive: -10.4%.
COCc1nc2nc(-c3ccccc3)c(-c3ccc(N4CCN(C)CC4)nc3)cc2n1C was tested, and the Potency was inconclusive: 100 µM [inhibitor, partial curve, poor fit].
For CC1CCCN1C(=O)c1cc(-c2cnn(C(C)C)c2)nc2cc(F)ccc12 (configuration not stated), the Potency was inconclusive: 22.4 µM [inhibitor, full curve].
With CC(C)N1C[C@H](O)C[C@H]1c1nc(-c2ccc(F)cc2)no1 the Potency was inconclusive: 89.1 µM [inhibitor, partial curve].
In the case of O=C(NC1CCCC1)N1CC(Oc2ccc(-c3nc(-c4ccccc4)no3)cc2)C1, the Potency is reported as inconclusive: 15.8 µM [inhibitor, partial curve].
In the case of COc1ccc(-c2ncc3c(n2)OCCN(C)C3=O)cc1OC, the Potency is reported as active: 39.8 µM.
In the case of c1ccc(-c2csc(CCNc3nccc(-c4ccccn4)n3)n2)cc1, the Potency is reported as inconclusive: 39.8 µM [inhibitor, partial curve].
With Cn1cc(C2CCN(C(=O)c3sc(Cl)c(Cl)c3Cl)CC2)c2ccccc21 the “activity change, negative = inhibition” value was inactive: 3.95%.
CNC(=O)c1cnn2ncccc12 was tested, and the Potency was inconclusive: 126 µM [inhibitor, partial curve, poor fit].
In the case of OC[C@@H]1CN(C2CCSCC2)C[C@H]1c1nc(-c2cccnc2)no1, the Potency is reported as inconclusive: 50.1 µM [inhibitor, partial curve].
In the case of O=C(Nc1cnc(-c2cccc(Cl)c2)nc1)c1ccccc1F, the Potency is reported as active: 1 µM.
In the case of Cc1ccc(-c2nc(CN3CCCC3=O)no2)cc1, the Potency is reported as inconclusive: 39.8 µM [inhibitor, partial curve].
In the case of O=C(NCCc1ccccn1)c1c[nH]c2ncccc12, the Potency is reported as inconclusive: 50.1 µM [inhibitor, partial curve].
For COc1cc(F)ccc1-c1nc(-c2c(C)noc2C)cc2[nH]c(C)cc12, the “activity change, negative = inhibition” value was inactive: -2.43% [at 172 µM].
O=C(NCCc1noc(-c2ccncc2)n1)c1c2c(nc3ccccc13)CCCC2 was tested, and the Potency was inconclusive: 31.6 µM [inhibitor, partial curve].
Cn1c(CN2C[C@H](O)C[C@H]2c2nc(-c3ccc(OC(F)(F)F)cc3)no2)nc2ccccc21 was tested, and the Potency was active: 39.8 µM.
CC1CCN(C(=O)c2cc3c(s2)CCC(C(=O)O)C3)CC1 (configuration not stated) was tested, and the Potency was active: 12.6 µM.
Cn1ccnc1CN1C(=O)CO[C@H](c2ccc(NC(=O)c3ccc(C(F)(F)F)cc3)cc2)[C@H]1CO was tested, and the Potency was active: 35.5 µM.
In the case of O=C1CCN(S(=O)(=O)c2ccc3c(c2)CCC3)CCCC(C(=O)NCc2ccncc2)CCN1 (configuration not stated), the “activity change, negative = inhibition” value is reported as inactive: 9.14%.
In the case of CCc1noc(Cc2c(C)nn(-c3ccccc3)c2C)n1, the “activity change, negative = inhibition” value is reported as inactive: -9.59%.
For O=C(O)CCC(=O)N1Cc2[nH]cnc2C[C@H]1c1nc(-c2ccc3ccccc3c2)no1, the Potency was inconclusive: 112 µM [inhibitor, single point].
O=C1COc2ccc(Nc3cccc(F)c3)nc2CN1CCOc1ccccc1 was tested, and the “activity change, negative = inhibition” value was inactive: -25.9% [at 172 µM].
CN(CC1(C)CCOCC1)C(=O)c1cccs1 was tested, and the Potency was inconclusive: 50.1 µM [inhibitor, partial curve].
In the case of O=C(Nc1ccc(F)cc1)C1CCN(C(=O)c2ncn3c2COC(c2ccccc2)C3)CC1 (configuration not stated), the Potency is reported as active: 1.58 µM.
In the case of COc1cc(NC(=O)c2ccc3c(c2)N(C)C2CCCCCN2C3=O)cc(OC)c1 (configuration not stated), the Potency is reported as inconclusive: 15.8 µM [inhibitor, partial curve].
In the case of CN1c2cc(C(=O)Nc3cc(F)cc(F)c3)ccc2C(=O)N2CCCCC21 (configuration not stated), the Potency is reported as inconclusive: 1.78 µM [inhibitor, full curve, poor fit].
In the case of COCc1cccc(-c2ccc3ncn(-c4ccc(F)cc4F)c(=O)c3n2)c1, the “activity change, negative = inhibition” value is reported as inactive: -4.71% [at 172 µM].
COc1ccc(-c2cc(C[C@@H]3CC[C@H](O)[C@@H](CNCc4cccc(Cl)c4)O3)no2)cc1 was tested, and the Potency was active: 50.1 µM.
For Cn1nccc1C(=O)N1CCC(n2nccc2NC(=O)CCOc2ccccc2)CC1, the Potency was inconclusive: 50.1 µM [inhibitor, partial curve].
O=C(Nc1ccccc1)c1ccc2c(c1)OCCN(CCC(F)(F)F)C2 was tested, and the Potency was inconclusive: 79.4 µM [inhibitor, partial curve].
With O=C(Nc1ccc(F)cc1)N1Cc2[nH]cnc2C[C@H]1c1nc(-c2ccc(F)cc2)no1 the Potency was inconclusive: 44.7 µM [inhibitor, partial curve].
O=C(c1ccsc1)N1CCCn2cc(-c3ccc4c(c3)OCO4)nc21 was tested, and the Potency was inconclusive: 44.7 µM [inhibitor, partial curve].
For c1cc(-c2ccco2)cc(-c2nc(C3CCOC3)no2)c1 (configuration not stated), the Potency was active: 44.7 µM.
In the case of O=C(CN1C(=O)C(c2ccccc2)=NC12CCCC2)Nc1ccc2c(c1)OCCO2, the Potency is reported as inconclusive: 44.7 µM [inhibitor, partial curve].
With Cc1cccc(CNC(=O)c2noc(-c3ccc4c(c3)OCO4)n2)c1 the Potency was inconclusive: 39.8 µM [inhibitor, partial curve].
With COc1ccc(CNC(=O)C[C@@H]2C[C@@H](C(C)C)[C@H](CNC(=O)c3cccnc3)C=C2C)cc1 the Potency was active: 14.1 µM.
In the case of COCc1cc(C[C@@H]2C[C@H](NCc3ccccc3O)C2(C)C)no1, the “activity change, negative = inhibition” value is reported as inactive: -7.34% [at 172 µM].
O=C(c1ccco1)N1CC(Oc2cccc(-c3nc(-c4ccccc4)no3)c2)C1 was tested, and the Potency was inconclusive: 17.8 µM [inhibitor, full curve].
With Cc1noc(C)c1CN1CC[C@@H]2OCC(=O)N(Cc3c[nH]c4ccccc34)[C@H]2CC1 the “activity change, negative = inhibition” value was inactive: 1.68% [at 172 µM].
Cc1nn(-c2ccccc2)nc1C(=O)N[C@H](C)c1onc(-c2cccnc2)c1C(=O)O was tested, and the Potency was inconclusive: 56.2 µM [inhibitor, partial curve, poor fit].
